{"source": "ChEMBL document CHEMBL4888484", "about": "“Replenishing the malaria drug discovery pipeline: Screening and hit evaluation of the MMV Hit Generation Library 1 (HGL1) against asexual blood stage Plasmodium falciparum ,using a nano luciferase reporter read-out” (2022)", "note": "The whole screen tested about 150,000 compounds, of which about 540 (0.36%) showed an effect of 50% or more. The list shows a part of the results."}
{"tested_on": "Plasmodium falciparum", "assay": "Primary screen in NF54 nanoGlo assay, in single point, at 2uM, 72h; a lower Z score goes with more inhibition", "type": "functional, Erythrocyte", "settings": "timepoint 72 hour", "units": {"% Inhibition": "%"}}
{"smiles": "CC(C)(C)CC(=O)Nc1cnc(N2CCCCC2)nc1", "% Inhibition": -21, "Z score": 1.87}
{"smiles": "O=C(Cn1c(=O)c2sccc2n(CC(=O)Nc2cccc(Cl)c2Cl)c1=O)NCCc1ccccc1", "% Inhibition": -7, "Z score": 0.85}
{"smiles": "CC(C)N1CC2(CN(C(=O)c3ccccc3)C[C@@H]3C[C@@H](O)CN32)C1", "% Inhibition": 29, "Z score": -3.33}
{"smiles": "Cn1c(NCC(C)(C)c2ccncc2)nc2cnccc21", "% Inhibition": 3, "Z score": -0.66}
{"smiles": "CN=C(NCCC(C)C)N1CCC(OC(C)(C)C)CC1", "% Inhibition": -1, "Z score": 0.28}
{"smiles": "C[C@H](NC(=O)N1CCN(C(CO)c2ccc(Cl)cc2)CC1)c1cccnc1", "note": "(stereo not given in full)", "% Inhibition": -2, "Z score": 0.3}
{"smiles": "N#CCC(=O)NC1(C(F)F)CCCCC1", "% Inhibition": -5, "Z score": 0.49}
{"smiles": "c1ccc(-c2noc(CCN3CCOC[C@@H]3CC3CC3)n2)cc1", "% Inhibition": -6, "Z score": 1.14}
{"smiles": "COc1ccc(CCNC(=O)c2sc(=S)n(Cc3ccco3)c2N)cc1OC", "% Inhibition": -8, "Z score": 1.13}
{"smiles": "COCC1(CNS(=O)(=O)N2CCOCC2)CCCC1", "% Inhibition": -4, "Z score": 0.38}
{"smiles": "COc1nc(-c2cccc(F)c2)n(-c2cccc(NC(=O)Nc3ccc(F)cc3F)c2)n1", "% Inhibition": -1, "Z score": 0.13}
{"smiles": "CCn1cc(Cl)c(C(=O)N2CCCC[C@H]2c2nc(-c3ccncc3)no2)n1", "% Inhibition": -11, "Z score": 1.45}
{"smiles": "O=C(CC1CC2CCC1C2)Nc1ccc[n+]([O-])c1", "note": "(stereo not given)", "% Inhibition": -7, "Z score": 0.92}
{"smiles": "Cc1cc(C(=O)NCc2nc(C(C)C)no2)cc(C)n1", "% Inhibition": -2, "Z score": 0.34}
{"smiles": "Cc1csc(NC(=O)[C@H](C)N2CCC3(CC2)C(=O)NCCCN3C)n1", "% Inhibition": -3, "Z score": 0.52}
{"smiles": "COc1cc(C)ccc1OCCn1ncc(N2CCOCC2)cc1=O", "% Inhibition": -8, "Z score": 0.7}
{"smiles": "CCN(CC)[C@H]1CCN(C(=O)NCCC(C)C)C1", "% Inhibition": -8, "Z score": 1.19}
{"smiles": "NCc1cc(NC(=O)c2cn(C3CC3)nn2)cc(C(F)(F)F)c1", "% Inhibition": 9, "Z score": -1.1}
{"smiles": "CCCc1ncncc1C(=O)N(C)[C@H]1CCN(C)C1", "% Inhibition": 1, "Z score": -0.15}
{"smiles": "Cc1cc(NC(=O)C(C)N2CCOC(c3nccs3)C2)no1", "note": "(stereo not given)", "% Inhibition": 7, "Z score": -1.18}
{"smiles": "Cc1noc(C2CC2)c1NS(=O)(=O)c1cnc2ccccn12", "% Inhibition": -13, "Z score": 1.46}
{"smiles": "Cc1c(Cl)cccc1CNC(=O)[C@@H]1CC[C@H](C(=O)O)C1", "% Inhibition": -6, "Z score": 1.35}
{"smiles": "CC(C)(C)CNCc1ccc(C2OCCO2)cc1", "% Inhibition": 6, "Z score": -0.87}
{"smiles": "CCC(NC(=O)c1scnc1C)C(O)C(F)(F)F", "note": "(stereo not given)", "% Inhibition": -2, "Z score": 0.38}
{"smiles": "Cc1cc(C)n(CC(=O)NCCc2ccccc2)c(=O)c1-c1nc(-c2ccc3c(c2)OCO3)no1", "% Inhibition": -12, "Z score": 1.71}
